The other results are listed elsewhere or left out. Rule as the data show it: active = 3.2 or more and inactive = the rest. Only a few entries rise above the background.
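Also: displayed peptides selected on beads carrying the immobilized SH2 domain, with library peptides lacking any tyrosine serving as negative controls.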

One test deals with SHP2 C-SH2 domain E139D. In words: enrichment score (SH2-bound / input frequency) (ratio); bacterial display of known human phosphotyrosine sites (pTyr-Var adds point mutants) read by sequencing; higher = stronger binding; tyrosines were phosphorylated by kinases first. The conditions noted are these: peptide library: pTyr-Var.
On to AQAERYDDMAA [YWHAG_Y20_E15A], for which the enrichment score was inactive: 0.43.
Same read-out and setting: the value for IVRSPYEDLED [VHL_Y185_L184P] was inactive: 0.607; that for MKGDFYCFLAE [YWHAG_Y131_R132C_YF] was inactive: 1.27.
The same measure, in the same setting: then KTSGNYLPVTG [WDR19_Y28_A30P], with inactive: 0.937; and AALKLYHVSDS [VIL1_Y256], with inactive: 0.883; and ERRLIYASDPK [VPS13D_Y864_T865A], with inactive: 0.884.
Still for that read-out and setting: the value for KLSHLYQDHMQ [WNT5A_Y86_C83S] was inactive: 1.4; that for ADRNHYRRFPR [YBX1_Y145_YF] was inactive: 0.279; that for VKPENDRRLDI [VHL_Y175_Y175D] was inactive: 0.702.
For the molecule AYGNLYGSRKQ [YIPF7_Y59], the enrichment score was inactive: 0.584.
With GEFFRYLAEVA [YWHAG_Y133_D129E_YF], the enrichment score is inactive: 0.959.
As for HGEAVYSRDCV [XPC_Y676_R671H], the enrichment score is inactive: 0.687.
The same measure, in the same setting: then KMKGEYFRFLA [YWHAG_Y130_D129E_YF], with inactive: 2.57; and ADRNHYRRYRR [YBX1_Y145_P149R], with inactive: 0.239.
For the molecule RNFVHYVQGLK [VWF_Y1400_R1399H], the enrichment score was inactive: 0.982.
As to KTSGNYLAVTG [WDR19_Y28], the enrichment score was inactive: 0.681.
LKLWDYRRGRC [WDR5B_Y239_S240R]: the enrichment score was inactive: 0.281.
Still for that read-out and setting: the value for KNNSIYVVANI [VNN1_Y134] was inactive: 1.79.

For a further test, the target named is SHP2 C-SH2 domain wild-type. Described as above. The settings on record: peptide library: pTyr-Var.
Consider AQAERYDDMAA [YWHAG_Y20_E15A], for which the enrichment score is inactive: 0.404.
Take IVRSPYEDLED [VHL_Y185_L184P]: the enrichment score was inactive: 0.437.
Still for that read-out and setting: then MKGDFYCFLAE [YWHAG_Y131_R132C_YF], with inactive: 1.78.
Consider KTSGNYLPVTG [WDR19_Y28_A30P], for which the enrichment score is inactive: 0.719.
Regarding AALKLYHVSDS [VIL1_Y256], the enrichment score is inactive: 0.778.
Consider ERRLIYASDPK [VPS13D_Y864_T865A], for which the enrichment score is inactive: 0.741.
Still for that read-out and setting: the value for KLSHLYQDHMQ [WNT5A_Y86_C83S] was inactive: 1.22; that for ADRNHYRRFPR [YBX1_Y145_YF] was inactive: 0.266; that for VKPENDRRLDI [VHL_Y175_Y175D] was inactive: 0.521.
Consider AYGNLYGSRKQ [YIPF7_Y59], for which the enrichment score is inactive: 0.498.
As to GEFFRYLAEVA [YWHAG_Y133_D129E_YF], the enrichment score was inactive: 0.961.
As for HGEAVYSRDCV [XPC_Y676_R671H], the enrichment score is inactive: 0.611.
On the same count and under the same terms, the value for KMKGEYFRFLA [YWHAG_Y130_D129E_YF] was inactive: 2.41.
Regarding ADRNHYRRYRR [YBX1_Y145_P149R], the enrichment score is inactive: 0.365.
Still for that read-out and setting: the value for RNFVHYVQGLK [VWF_Y1400_R1399H] was inactive: 1.46; that for KTSGNYLAVTG [WDR19_Y28] was inactive: 0.507; that for LKLWDYRRGRC [WDR5B_Y239_S240R] was inactive: 0.199.
Same read-out and setting: then KNNSIYVVANI [VNN1_Y134], with inactive: 1.97.

Another test deals with SHP2 N-SH2 domain L43F. The test is described as above. The conditions noted are these: peptide library: pTyr-Var.
With AQAERYDDMAA [YWHAG_Y20_E15A], the enrichment score is inactive: 0.407.
Take IVRSPYEDLED [VHL_Y185_L184P]: the enrichment score is inactive: 0.535.
Still for that read-out and setting: the value for MKGDFYCFLAE [YWHAG_Y131_R132C_YF] was inactive: 1.77; that for KTSGNYLPVTG [WDR19_Y28_A30P] was inactive: 0.961.
On the same count and under the same terms, the value for AALKLYHVSDS [VIL1_Y256] was inactive: 0.557; that for ERRLIYASDPK [VPS13D_Y864_T865A] was inactive: 0.857; that for KLSHLYQDHMQ [WNT5A_Y86_C83S] was inactive: 1.22.
Still for that read-out and setting: then ADRNHYRRFPR [YBX1_Y145_YF], with inactive: 0.274.
For VKPENDRRLDI [VHL_Y175_Y175D], the enrichment score is inactive: 0.762.
The same measure, in the same setting: then AYGNLYGSRKQ [YIPF7_Y59], with inactive: 0.588; and GEFFRYLAEVA [YWHAG_Y133_D129E_YF], with inactive: 0.825; and HGEAVYSRDCV [XPC_Y676_R671H], with inactive: 0.555.
Take KMKGEYFRFLA [YWHAG_Y130_D129E_YF]: the enrichment score was inactive: 2.72.
Same read-out and setting: the value for ADRNHYRRYRR [YBX1_Y145_P149R] was inactive: 0.26; that for RNFVHYVQGLK [VWF_Y1400_R1399H] was inactive: 0.913.
Still for that read-out and setting: then KTSGNYLAVTG [WDR19_Y28], with inactive: 0.639; and LKLWDYRRGRC [WDR5B_Y239_S240R], with inactive: 0.31.
Same read-out and setting: the value for KNNSIYVVANI [VNN1_Y134] was inactive: 1.66.

A further test addresses SHP2 N-SH2 domain T42A. The test is described as above. The settings on record: peptide library: pTyr-Var.
Regarding AQAERYDDMAA [YWHAG_Y20_E15A], the enrichment score is inactive: 0.385.
The same measure, in the same setting: the value for IVRSPYEDLED [VHL_Y185_L184P] was inactive: 0.437; that for MKGDFYCFLAE [YWHAG_Y131_R132C_YF] was inactive: 1.44.
With KTSGNYLPVTG [WDR19_Y28_A30P], the enrichment score was inactive: 0.86.
Take AALKLYHVSDS [VIL1_Y256]: the enrichment score is inactive: 0.497.
For ERRLIYASDPK [VPS13D_Y864_T865A], the enrichment score was inactive: 0.645.
Still for that read-out and setting: the value for KLSHLYQDHMQ [WNT5A_Y86_C83S] was inactive: 0.849; that for ADRNHYRRFPR [YBX1_Y145_YF] was inactive: 0.267; that for VKPENDRRLDI [VHL_Y175_Y175D] was inactive: 0.697.
Same read-out and setting: then AYGNLYGSRKQ [YIPF7_Y59], with inactive: 0.709; and GEFFRYLAEVA [YWHAG_Y133_D129E_YF], with inactive: 0.725.
Take HGEAVYSRDCV [XPC_Y676_R671H]: the enrichment score is inactive: 0.475.
Still for that read-out and setting: the value for KMKGEYFRFLA [YWHAG_Y130_D129E_YF] was inactive: 2.18; that for ADRNHYRRYRR [YBX1_Y145_P149R] was inactive: 0.299.
Consider RNFVHYVQGLK [VWF_Y1400_R1399H], for which the enrichment score is inactive: 2.26.
The same measure, in the same setting: then KTSGNYLAVTG [WDR19_Y28], with inactive: 0.767; and LKLWDYRRGRC [WDR5B_Y239_S240R], with inactive: 0.194; and KNNSIYVVANI [VNN1_Y134], with inactive: 1.53.

For the next test, the target named is SHP2 N-SH2 domain T52S. Described as above. The settings on record: peptide library: pTyr-Var.
Consider AQAERYDDMAA [YWHAG_Y20_E15A], for which the enrichment score is inactive: 0.415.
Same read-out and setting: then IVRSPYEDLED [VHL_Y185_L184P], with inactive: 0.416; and MKGDFYCFLAE [YWHAG_Y131_R132C_YF], with inactive: 1.25.
On the same count and under the same terms, the value for KTSGNYLPVTG [WDR19_Y28_A30P] was inactive: 0.608; that for AALKLYHVSDS [VIL1_Y256] was inactive: 0.728.
The same measure, in the same setting: then ERRLIYASDPK [VPS13D_Y864_T865A], with inactive: 0.895; and KLSHLYQDHMQ [WNT5A_Y86_C83S], with inactive: 0.957; and ADRNHYRRFPR [YBX1_Y145_YF], with inactive: 0.269.
For the molecule VKPENDRRLDI [VHL_Y175_Y175D], the enrichment score is inactive: 0.643.
The same measure, in the same setting: the value for AYGNLYGSRKQ [YIPF7_Y59] was inactive: 0.42.
On the same count and under the same terms, the value for GEFFRYLAEVA [YWHAG_Y133_D129E_YF] was inactive: 0.719; that for HGEAVYSRDCV [XPC_Y676_R671H] was inactive: 0.631.
On the same count and under the same terms, then KMKGEYFRFLA [YWHAG_Y130_D129E_YF], with inactive: 2.67; and ADRNHYRRYRR [YBX1_Y145_P149R], with inactive: 0.285; and RNFVHYVQGLK [VWF_Y1400_R1399H], with inactive: 1.28.
As for KTSGNYLAVTG [WDR19_Y28], the enrichment score is inactive: 0.562.
Still for that read-out and setting: then LKLWDYRRGRC [WDR5B_Y239_S240R], with inactive: 0.31; and KNNSIYVVANI [VNN1_Y134], with inactive: 1.55.

For the next test, the target named is SHP2 N-SH2 domain wild-type. Described as above. The conditions noted are these: peptide library: pTyr-Var.
As to AQAERYDDMAA [YWHAG_Y20_E15A], the enrichment score is inactive: 0.5.
As for IVRSPYEDLED [VHL_Y185_L184P], the enrichment score is inactive: 0.748.
In the case of MKGDFYCFLAE [YWHAG_Y131_R132C_YF], the enrichment score was inactive: 2.04.
For the molecule KTSGNYLPVTG [WDR19_Y28_A30P], the enrichment score was inactive: 0.986.
Still for that read-out and setting: the value for AALKLYHVSDS [VIL1_Y256] was inactive: 0.707.
With ERRLIYASDPK [VPS13D_Y864_T865A], the enrichment score is inactive: 0.789.
On the same count and under the same terms, then KLSHLYQDHMQ [WNT5A_Y86_C83S], with inactive: 1.05.
Still for that read-out and setting: then ADRNHYRRFPR [YBX1_Y145_YF], with inactive: 0.251; and VKPENDRRLDI [VHL_Y175_Y175D], with inactive: 0.892; and AYGNLYGSRKQ [YIPF7_Y59], with inactive: 0.42.
With GEFFRYLAEVA [YWHAG_Y133_D129E_YF], the enrichment score was inactive: 0.911.
For the molecule HGEAVYSRDCV [XPC_Y676_R671H], the enrichment score is inactive: 0.634.
With KMKGEYFRFLA [YWHAG_Y130_D129E_YF], the enrichment score was inactive: 2.45.
Consider ADRNHYRRYRR [YBX1_Y145_P149R], for which the enrichment score is inactive: 0.298.
Still for that read-out and setting: then RNFVHYVQGLK [VWF_Y1400_R1399H], with inactive: 0.968.
Regarding KTSGNYLAVTG [WDR19_Y28], the enrichment score was inactive: 0.632.
On the same count and under the same terms, the value for LKLWDYRRGRC [WDR5B_Y239_S240R] was inactive: 0.311; that for KNNSIYVVANI [VNN1_Y134] was inactive: 1.76.

(Values after the supplement of paper PMC10369915.)
